The values below come from EP4714970A1 (Akeso Biopharma Co., Ltd., dated 2026).

Where two headings read alike, the source gives them in different places.

Experiment [1] deals with T1, human LAG3-mG1Fc (human; mouse, UniProt P18627 23-450, limits assumed).
T1 construct: Made by Akeso; also called huLAG3-mG1Fc; HuLAG3-mG1Fc; not shown: mouse IgG1 Fc (mG1Fc); limits not readable
T1 sequence (looked up): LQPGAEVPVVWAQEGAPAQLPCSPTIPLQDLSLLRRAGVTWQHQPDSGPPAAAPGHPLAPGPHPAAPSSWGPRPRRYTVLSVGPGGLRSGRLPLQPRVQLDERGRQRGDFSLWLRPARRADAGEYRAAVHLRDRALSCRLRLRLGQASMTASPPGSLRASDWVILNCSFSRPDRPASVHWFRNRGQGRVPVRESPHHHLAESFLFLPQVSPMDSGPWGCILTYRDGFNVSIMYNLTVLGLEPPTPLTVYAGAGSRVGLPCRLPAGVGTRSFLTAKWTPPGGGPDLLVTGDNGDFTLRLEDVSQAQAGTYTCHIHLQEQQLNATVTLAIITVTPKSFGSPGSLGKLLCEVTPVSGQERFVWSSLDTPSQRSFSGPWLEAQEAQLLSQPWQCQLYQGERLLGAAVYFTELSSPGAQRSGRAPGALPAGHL
Kind of experiment: ELISA, huLAG3-mG1Fc coated, Ab 0.0011431 nM. On the technique in general: In an ELISA, binding on a coated surface is turned into a signal by an enzyme label.

Experiment [2] has as its target T1, human LAG3-mG1Fc. Kind of experiment: ELISA, huLAG3-mG1Fc coated, Ab 0.0001270 nM.
In experiment [3] the target is T1, human LAG3-mG1Fc. In words: BLI (Fortebio), antigen on AMC sensor, antibody in solution, 30 C, 1:1 fit.
Experiment [4] addresses T1, human LAG3-mG1Fc. Kind of experiment: ELISA, huLAG3-mG1Fc coated 2 ug/mL.
In experiment [5] the target is T1, human LAG3-mG1Fc. In words: competitive flow cytometry, 3 nM LAG3-mG1Fc on Raji cells (competitor MHC II).
For experiment [6], the target named is T2, hNT5E(1-552)-His (human, UniProt P21589 27-552).
T2 construct: also called NT5E-His; not shown: His tag
T2 sequence (looked up): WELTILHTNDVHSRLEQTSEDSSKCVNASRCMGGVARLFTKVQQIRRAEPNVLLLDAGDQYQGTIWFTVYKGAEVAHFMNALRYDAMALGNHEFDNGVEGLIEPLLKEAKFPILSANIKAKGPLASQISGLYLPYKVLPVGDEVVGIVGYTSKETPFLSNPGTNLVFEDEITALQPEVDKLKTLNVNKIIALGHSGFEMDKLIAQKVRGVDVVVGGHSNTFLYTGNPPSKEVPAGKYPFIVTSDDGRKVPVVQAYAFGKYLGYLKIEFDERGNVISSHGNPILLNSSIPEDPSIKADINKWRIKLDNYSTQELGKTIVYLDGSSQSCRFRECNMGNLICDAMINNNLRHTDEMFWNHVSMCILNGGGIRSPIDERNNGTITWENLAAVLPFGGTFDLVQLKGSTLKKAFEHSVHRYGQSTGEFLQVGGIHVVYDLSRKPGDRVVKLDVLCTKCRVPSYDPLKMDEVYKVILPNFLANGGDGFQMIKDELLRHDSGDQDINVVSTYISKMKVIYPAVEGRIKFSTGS
Kind of experiment: ELISA, NT5E-His coated 1 ug/mL.

For experiment [7], the target named is T3, CD73 on U87-MG cell membrane surface (UniProt P21589 27-549, limits assumed).
T3 sequence (looked up): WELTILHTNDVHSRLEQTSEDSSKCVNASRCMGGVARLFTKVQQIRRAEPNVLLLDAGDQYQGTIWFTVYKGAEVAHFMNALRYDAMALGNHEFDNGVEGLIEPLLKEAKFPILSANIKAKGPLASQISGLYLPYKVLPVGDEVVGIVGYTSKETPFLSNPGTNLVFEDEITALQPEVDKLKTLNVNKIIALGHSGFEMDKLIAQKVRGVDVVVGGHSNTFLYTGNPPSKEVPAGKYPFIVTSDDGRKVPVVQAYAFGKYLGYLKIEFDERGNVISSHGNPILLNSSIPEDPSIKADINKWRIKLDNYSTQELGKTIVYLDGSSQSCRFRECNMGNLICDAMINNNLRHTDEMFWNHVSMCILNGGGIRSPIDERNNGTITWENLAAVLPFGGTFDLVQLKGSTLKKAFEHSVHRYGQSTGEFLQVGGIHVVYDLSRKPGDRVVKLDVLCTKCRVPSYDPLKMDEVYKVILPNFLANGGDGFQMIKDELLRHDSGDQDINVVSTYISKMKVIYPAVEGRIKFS
Kind of experiment: cell-based or functional assay.

Experiment [8] concerns the target T4, human LAG3 on cell surface (293T-LAG3 cells; Jurkat-NFAT-PD1-LAG3 cells) (human, UniProt P18627 23-525).
T4 construct: whole, on cells; also called huLAG3FL
T4 sequence (looked up): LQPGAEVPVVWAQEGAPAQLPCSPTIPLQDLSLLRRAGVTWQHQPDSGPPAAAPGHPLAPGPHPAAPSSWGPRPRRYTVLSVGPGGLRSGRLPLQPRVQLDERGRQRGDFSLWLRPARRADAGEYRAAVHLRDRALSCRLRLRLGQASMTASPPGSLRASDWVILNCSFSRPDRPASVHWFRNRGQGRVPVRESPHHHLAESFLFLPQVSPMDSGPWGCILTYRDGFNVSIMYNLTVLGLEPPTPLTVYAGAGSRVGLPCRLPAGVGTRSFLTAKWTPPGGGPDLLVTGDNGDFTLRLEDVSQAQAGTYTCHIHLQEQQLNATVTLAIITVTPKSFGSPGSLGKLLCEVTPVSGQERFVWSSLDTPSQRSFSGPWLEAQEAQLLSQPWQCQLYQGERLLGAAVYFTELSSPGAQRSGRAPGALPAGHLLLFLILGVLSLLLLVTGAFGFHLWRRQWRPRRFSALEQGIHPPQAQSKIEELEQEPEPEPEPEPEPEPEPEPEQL
Kind of experiment: flow cytometry on 293T-LAG3 cells.

Experiment [9] has as its target T2, hNT5E(1-552)-His. In words: BLI (Fortebio), antigen on HIS1K sensor, antibody in solution, 37 C, 1:1 fit. On the technique in general: In BLI a coated tip is dipped into the sample, and binding shifts an interference pattern.
The target in experiment [10] is T2, hNT5E(1-552)-His. Kind of experiment: ELISA, NT5E-His coated, Ab 0 nM (blank).
Experiment [11] deals with T3, CD73 on U87-MG cell membrane surface. Kind of experiment: flow cytometry on U87-MG cells. Background: A flow cytometer gives signals particle by particle.
For experiment [12], the target named is T2, hNT5E(1-552)-His. Kind of experiment: ELISA, NT5E-His coated, Ab 0.0000423 nM.
The target of experiment [13] is T2, hNT5E(1-552)-His. In words: ELISA, NT5E-His coated 1 ug/mL. The source holds these as a separate data set.
Experiment [14] deals with T1, human LAG3-mG1Fc. In words: ELISA, huLAG3-mG1Fc coated 2 ug/mL. This is another data set of the same source.

B1: LA5EV2(hG1TM) (bispecific antibody, human IgG1, kappa)
heavy: QVQLQQWGAGLLKPSETLSLTCAVYGGSISDYYWNWIRQPPGKGLEWIGEINYRGTTNSNPSLKSRVTLSLDTSKNQFSLKLRSVTAADTAVYYCAFGYSDYEYDWFDPWGQGTLVTVSSASTKGPSVFPLAPSSKSTSGGTAALGCLVKDYFPEPVTVSWNSGALTSGVHTFPAVLQSSGLYSLSSVVTVPSSSLGTQTYICNVNHKPSNTKVDKKV[letters of human IgG1 Fc with L234A L235A G237A (EU numbers) omitted]GGGGSGGGGSGGGGSGGGGSQVQLVQSGAEVVKPGASVKVSCKASGYSFTGYTMNWVRQAPGQCLEWIGLINPYNAGTSYNQKFQGKVTLTVDKSTSTAYMELSSLRSEDTAVYYCARSEYRYGGDYFDYWGQGTTLTVSSGGGGSGGGGSGGGGSGGGGSDIVMTQSPSSLAVSVGERVTISCKSSQSLLNSSNQKNYLAWYQQKPGQAPKLLIYFASTRESGVPDRFSGSGSGTDFTLTISSLQAEDVAVYYCQQHYDTPYTFGCGTKLEIKR
light: EIVLTQSPATLSLSPGERATLSCRASQTISSYLAWYQQKPGQAPRLLIYDASNRATGIPARFSGSGSGTDFTLTISSLEPEDFAVYYCQQRSNWPITFGQGTNLEIKRTVAAPSVFIFPPSDEQLKSGTASVVCLLNNFYPREAKVQWKVDNALQSGNSQESVTEQDSKDSTYSLSSTLTLSKADYEKHKVYACEVTHQGLSSPVTKSFNRGEC
notes: IgG-scFv (Morrison format); also called LASEV2; LASEV2(hG1TM)
With B1, the “OD 450 nm” value is 0.156 OD in experiment [1], 0.103 OD in experiment [2], 0.058 OD in experiment [10] and 0.059 OD in experiment [12]. Besides, the Kd in experiment [3] is 0.152 nM; in [9], 1.21 nM. The figures for the “Maximum signal height of analyte (nm)” value in experiment [3] and in [9] were 0.948 nm and 0.228 nm, respectively. The entries for the “S E (kdis)” value in experiment [3] and in experiment [9] were 2.8e-06 s⁻¹ and 2.5e-06 s⁻¹, respectively. In addition, the “S E (kon)” value in experiment [3] is 2840 M⁻¹ s⁻¹; in experiment [9], 1360 M⁻¹ s⁻¹. The values for the koff in experiment [3] and in [9] were 7.58e-05 s⁻¹ and 0.000599 s⁻¹, respectively. For the same molecule, the results for the association rate constant (kon) in experiment [3] and in [9] were 500000 M⁻¹ s⁻¹ and 495000 M⁻¹ s⁻¹, respectively. For the same molecule, the EC50 in experiment [4] came to 0.036 nM; in experiment [5], 0.999 nM; in experiment [6], 0.029 nM; in experiment [8] it was 0.399 nM; in experiment [11], 2.16 nM. Further, the “EC50 (nM), inhibition of CD73 enzyme activity on U87-MG cells” value in experiment [7] was found to be 0.61 nM. In addition, the “Maximum inhibition rate (%) of CD73 enzyme activity on U87-MG cells” value in [7] is 74.7%.

B2: NTLAV8(hG1TM) (bispecific antibody, human IgG1, kappa)
heavy: QVQLVQSGAEVVKPGASVKVSCKASGYSFTGYTMNWVRQAPGQNLEWIGLINPYNAGTSYNQKFQGKVTLTVDKSTSTAYMELSSLRSEDTAVYYCARSEYRYGGDYFDYWGQGTTLTVSSASTKGPSVFPLAPSSKSTSGGTAALGCLVKDYFPEPVTVSWNSGALTSGVHTFPAVLQSSGLYSLSSVVTVPSSSLGTQTYICNVNHKPSNTKVDKKV[letters of human IgG1 Fc with L234A L235A G237A (EU numbers) omitted]GGGGSGGGGSGGGGSQVQLQQWGAGLLKPSETLSLTCAVYGGSISDYYWNWIRQPPGKCLEWIGEINYRGTTNSNPSLKSRVTLSLDTSKNQFSLKLRSVTAADTAVYYCAFGYSDYEYDWFDPWGQGTLVTVSSGGGGSGGGGSGGGGSGGGGSEIVLTQSPATLSLSPGERATLSCRASQTISSYLAWYQQKPGQAPRLLIYDASNRATGIPARFSGSGSGTDFTLTISSLEPEDFAVYYCQQRSNWPITFGCGTNLEIK
light: DIVMTQSPSSLAVSVGERVTISCKSSQSLLNSSNQKNYLAWYQQKPGQAPKLLIYFASTRESGVPDRFSGSGSGTDFTLTISSLQAEDVAVYYCQQHYDTPYTFGGGTKLEIKRTVAAPSVFIFPPSDEQLKSGTASVVCLLNNFYPREAKVQWKVDNALQSGNSQESVTEQDSKDSTYSLSSTLTLSKADYEKHKVYACEVTHQGLSSPVTKSFNRGEC
notes: IgG-scFv (Morrison format)
Consider B2, for which, in experiment [3], the Kd turned out to be 1.47 nM, the “Maximum signal height of analyte (nm)” value was 0.806 nm, the “S E (kdis)” value was found to be 3.05e-06 s⁻¹ and the “S E (kon)” value was found to be 1880 M⁻¹ s⁻¹. In experiment [3], this molecule showed a koff of 0.000505 s⁻¹ and a kon of 344000 M⁻¹ s⁻¹. In [13], the concentration giving a half-maximal response (EC50) was 0.05 nM. The molecule further gave an EC50 in experiment [5] of 0.974 nM. Further, in [7], the “EC50 (nM), inhibition of CD73 enzyme activity on U87-MG cells” value was determined as 0.816 nM and the “Maximum inhibition rate (%) of CD73 enzyme activity on U87-MG cells” value was determined as 98.8%. The EC50 in experiment [8] is 0.759 nM. Moreover, the midpoint of the response in [14], the EC50, lay at 0.231 nM. In experiment [9], the affinity, expressed as Kd, was 0.34 nM; the “Maximum signal height of analyte (nm)” value amounted to 0.203 nm; the “S E (kdis)” value was found to be 4.01e-06 s⁻¹; the “S E (kon)” value came to 1710 M⁻¹ s⁻¹. Besides, in experiment [9], the koff is 0.000128 s⁻¹ and the kon is 375000 M⁻¹ s⁻¹. The molecule further registered an EC50 in experiment [11] of 5.46 nM.

As a reminder, the Kd is a measure of binding affinity in units of concentration. The low end stands for a tighter complex, the high end for a looser complex. In general, koff refers to the rate constant with which the complex falls apart. A lower koff goes with slow dissociation. Usually kon stands for the second-order rate constant of association. Lower therefore signals slower complex formation. A word on the EC50: it is the concentration at which the effect is half-maximal. A higher EC50 goes with a need for much substance.
